Results on 58 compounds are retold here after PubChem BioAssay AID463173 (ICCB-Longwood Screening Facility, Harvard Medical School, 2010).

SMILES strings stand for the structures. The campaign covered roughly 52,000 compounds. About 1,700 (3.3%) were called active. No stated cut-off is given here; in the data, active means survival mostly below about 52% (no sharp cut-off); inactive means mostly above about 56%. Some of the results follow.

This experiment relates to Wild type. Description: growth inhibition of S. aureus wild type versus tarO mutant, primary screen, teichoic acid synthesis inhibitors, RN4220, OD600 (AID 463173). The conditions noted are these: S. aureus RN4220 wild type/DeltatarO growth, OD600, 18 h, stronger effect = lower value, screened at 18.75 µg/mL (by protocol).
Turning to `CCC(Sc1nnc(C)n2c1cc1occc12)C(=O)Nc1ccccc1OC` (stereo not drawn), the survival was inactive: 90%.
In the case of `CC(=O)c1sc(N2C(=O)c3oc4ccccc4c(=O)c3C2c2ccc(C)cc2)nc1C` (stereo not drawn) it was inactive: 92%; in that of `CCNc1nc(NC(N)=S)nc(NC(C)(C)C)n1`, inactive: 112%; in that of `CC(=O)c1ccc(NC(=O)Cn2nc(N3CCN(c4ccccc4)CC3)ccc2=O)cc1`, inactive: 71%.
The result for `COc1ccccc1OC(C)C(=O)Nc1cccc(-c2nc3ccccc3o2)c1` (stereo not drawn) reads active: 3%; that for `CN1CCN(C(=O)/C=C/c2ccccc2)CC1`, inactive: 94%.
In the case of `COc1ccccc1CNC(=O)CSC1=Nc2ccccc2N=C(c2ccc(F)cc2)C1` it was inactive: 73%; in that of `CCc1ccc(NS(=O)(=O)c2ccc3[nH]cc(C(=O)NCCCOC(C)C)c(=O)c3c2)cc1`, inactive: 85%.
Consider `Cc1ccc(Cl)cc1N1CCN(S(=O)(=O)c2ccc3c(c2)CCN3C(=O)C2CCC2)CC1`, for which the survival was inactive: 89%.
In the case of `CCCSc1nc2c([nH]c3ccccc32)c(=O)n1C` it was inactive: 87%.
Take `O=C(NCc1cccnc1)c1nn(-c2ccc(F)cc2)nc1CO`: the survival is inactive: 119%.
The result for `N=c1c2c(-c3ccccc3)c(-c3ccccc3)n(Cc3ccco3)c2ncn1CCO` reads inactive: 106%; that for `CC(C)c1nc2ccc(C(=O)Nc3ccccc3F)cc2o1`, inactive: 72%; that for `Cc1cc(NC(=O)c2cccc(F)c2)ccc1NC(=O)c1ccco1`, inactive: 114%.
On to `Cn1cnnc1SCc1nc2ccccc2[nH]1`, for which the survival was inactive: 92%.
The result for `O=C(Nc1ccccc1Cl)c1sc2cccc(Cl)c2c1Cl` reads inactive: 72%.
In the case of `COc1ccc(NC(=O)c2oc3ccccc3c2NC(=O)COc2ccc(C(C)C)cc2)c(OC)c1`, the survival was inactive: 89%.
Regarding `CN1C(C(=O)Nc2ccc(OC(F)(F)F)cc2)=CC(c2cccs2)=NS1(=O)=O`, the survival is inactive: 38%.
The result for `CCSc1nc2n(n1)C(c1ccc(C(=O)O)cc1)C(C(=O)Nc1ccccc1C)=C(C)N2` (stereo not drawn) reads inactive: 77%; that for `Nc1nc(=S)[nH]c2c1C1(CCCC1)Cc1ccccc1-2`, inactive: 126%; that for `Cc1ccc(N(CC(=O)Nc2ccc(Cl)cc2)S(=O)(=O)c2cccc3nonc23)cc1`, inactive: 125%.
Regarding `CCOc1cc(CNC(=O)CN2CCSc3ccccc32)cc(OCC)c1OCC`, the survival is inactive: 87%.
The result for `COc1cccc(NC(=O)Cn2c(=O)n(Cc3ccccc3)c(=O)c3ccccc32)c1` reads inactive: 108%.
In the case of `CN(C)c1ccc(CNC(=O)Cn2c(=O)oc3cc(S(=O)(=O)N4CCCCCC4)ccc32)cc1`, the survival was inactive: 83%.
As to `Cc1ccc(NC(=O)Cc2coc3ccc(C(C)C)cc23)cc1Cl`, the survival is inactive: 53%.
For `COc1ccc(-c2nc3c(c(SCC(=O)N4CCCCC4)n2)Cc2cc(Cl)ccc2O3)cc1`, the survival was inactive: 90%.
The result for `Cc1[nH]c(=O)[nH]c(=O)c1/C=N\NC(=O)c1cc2ccccc2o1` reads inactive: 111%.
The result for `CCOC(=O)c1c(NC(=O)c2ccc(OC)cc2)sc2c1CCCCC2` reads active: 7%.
With `O=C(COc1ccccc1)Nc1ccc2nc(SCC(=O)N3CCOCC3)sc2c1`, the survival was inactive: 76%.
In the case of `CCCS(=O)(=O)c1nc(S(=O)(=O)c2ccc(C)cc2)c(NC)s1` it was inactive: 87%; in that of `COc1ccc(-n2c(=O)[nH]c3cc(C(=O)NCCc4ccccc4)ccc3c2=O)cc1OC`, inactive: 76%.
In the case of `Cc1ccc(-n2ncc(C(=O)N3CCCCC3)c2C2CCN(C(=O)OC(C)(C)C)CC2)c(C)c1` it was inactive: 75%; in that of `COc1cc(OC)c(NS(=O)(=O)c2ccc3oc(=O)c4ncn(C)c4c3c2)cc1Cl`, inactive: 133%; in that of `Cc1ccc(CSc2nnc3[nH]c(=O)cc(-c4ccccc4)n23)cc1`, inactive: 74%.
In the case of `O=C(CSc1nnc(-c2ccc(F)cc2)o1)N1CCCc2ccccc21` it was inactive: 66%.
`COc1ccccc1NC(=O)N1CCN(Cc2ccccc2)CC1`: the survival is inactive: 102%.
The result for `COC(=O)c1sccc1S(=O)(=O)N(CC(=O)NCc1ccc(C)cc1)c1ccc(C)cc1` reads inactive: 75%.
The result for `COc1ccc(-n2c(SCC(=O)NCc3ccc(C)cc3)nc3n[nH]c(C)c3c2=N)cc1` reads inactive: 76%; that for `COc1ccc(OC)c(N=c2oc3cc(O)ccc3cc2C(=O)Nc2ccccn2)c1`, inactive: 120%.
In the case of `Fc1ccc(-c2nc(Nc3cccc(C(F)(F)F)c3)nc3c2COc2ccccc2-3)cc1` it was inactive: 56%; in that of `O=C(CCC1N=C2c3ccccc3N=C(SCc3ccc(Cl)cc3)N2C1=O)N1CCN(c2ccccc2)CC1` (stereo not drawn), inactive: 99%.
On to `COc1ccc(N2CCN(CCCNC(=O)Nc3ccccc3)CC2)cc1`, for which the survival is inactive: 73%.
In the case of `COc1ccc(C2C=C(c3ccc(Cl)c(Cl)c3)Nc3ncnn32)cc1` (stereo not drawn) it was inactive: 26%.
In the case of `C/C(=N/NC(=O)CC1N=C(Cc2ccccc2)NNC1=O)c1ccco1` (stereo not drawn) it was inactive: 86%; in that of `Cc1ccc(S(=O)(=O)N2C(=O)CCC2C(=O)NCc2ccco2)cc1` (stereo not drawn), inactive: 105%; in that of `O=C(Nc1ccccc1)C(Cc1cccs1)c1nn[nH]n1` (stereo not drawn), inactive: 103%.
The result for `CC(C)(C)c1ccc(OCc2nnc(-c3ccccc3)o2)cc1` reads inactive: 84%; that for `CCOC(=O)C1=C(CN2CCN(c3cccc(Cl)c3)CC2)NC(=O)NC1c1ccc(Cl)cc1` (stereo not drawn), inactive: 85%; that for `CCn1cc(C(=O)NCc2ccc(Cl)cc2)c(=O)c2cc(S(=O)(=O)N(C)C3CCCCC3)ccc21`, inactive: 81%.
With `COc1ccc(S(=O)(=O)NCCSc2nnnn2-c2ccccc2)cc1`, the survival was inactive: 91%.
In the case of `COc1ccc(NC(=O)CCCn2nc(C)c3sc4ccccc4c3c2=O)cc1` it was inactive: 90%; in that of `CCN1CCN(C(=O)c2cccs2)CC1`, inactive: 101%; in that of `Cc1cc(-n2c(C)nc3ccccc3c2=O)ccc1NC(=O)C(F)(F)F`, inactive: 69%.
In the case of `Fc1ccc(C2=CC(c3ccc(F)cc3)n3c(nc4ccccc43)N2)cc1` (stereo not drawn) it was inactive: 112%.
The result for `O=C(Cn1ncc2c3ccccc3n(Cc3ccc(F)cc3)c2c1=O)NCc1cccs1` reads inactive: 85%; that for `CC(CNC(=O)c1ccc2nc(Cc3ccccc3)oc2c1)c1ccccc1` (stereo not drawn), inactive: 79%.
As to `COc1ccc(-c2nc(CSCC(=O)N3CCN(c4ccc(F)cc4)CC3)c(C)o2)cc1`, the survival was inactive: 71%.
In the case of `O=C1Nc2ccccc2C(=O)N2CCCC12` (stereo not drawn) it was inactive: 110%.
